Hit rate of the full screen: of about 46,000 compounds, about 60 (0.1%) were called active. Roughly 3% stayed inconclusive and do not appear here. The call rests on the fitted dose curve; in most records, active means well fitted inhibition curve with a large enough effect; inconclusive means small, poorly fitted or top-dose-only effect; inactive means no such curve, though single readings can be large or run the other way. The list shows a part of the results.
Assay: Primary qHTS assay for Inhibitors of ovarian cancer metastasis using an organotypic tumor microenvironment (TME) model. Further: nearly all actives have a fitted effect of over 65% in size.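 On activity change, negative = inhibition: plate controls were DMSO wells for no effect and tomatine positive control wells for full effect.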
Details: SKOV3ip1-GFP adhesion/invasion on 3D omental model, fluorescence; series mostly up to 45.8 µM; activity change, negative = inhibition: at the top concentration
Outline: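 A 3D layer of primary human omental fibroblasts, mesothelial cells, fibronectin and collagen I, grown 48 hr, received SKOV3ip1-GFP cells in serum-free medium plus compounds at 0.36-46 umol/L. After 2 hr RT and 16 hr 37 C, fixed adherent GFP cells were counted; normalized to DMSO and tomatine.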

outcome, inactive:
CCc1ccc(NC(=O)C2CCC(CNS(=O)(=O)c3ccc4c(c3)C(C)(C)C(=O)N4C)CC2)cc1 (stereo not given), O=C(CSc1n[nH]c(-c2ccccc2)n1)N1CCN(c2ccccc2F)CC1, COc1cccc(NC(=O)c2sc3nc(C)c(C(=O)Nc4ccc(Cl)cc4)c(-c4ccc(Br)cc4)c3c2N)c1, OCc1cnc(SCc2ccc(F)cc2)n1Cc1ccc(F)cc1, COc1ccc(-c2c3c(=O)n(C)c(=O)n(C)c3c3n2-c2ccccc2NC3c2ccc(O)cc2O)cc1 (stereo not given), CCc1nn(CC(=O)NCCCN2CCN(CC)CC2)c(=O)c2cc3occc3n12, COc1ccccc1N(CC(=O)Nc1ccc2c(c1)OCO2)S(=O)(=O)c1ccc(C)cc1, CCOC(=O)N1CCN(Cc2nc3cc(NC(=O)C(C)C)ccc3n2C(C)C)CC1, Cc1ccc2nc(COc3ccccc3NC(=O)c3ccccc3F)cc(=O)n2c1, CCc1cccc(NC(=O)C2Cc3ccccc3N2C(=O)c2ccccc2)c1 (stereo not given), O=C(c1ccc2c(c1)N(Cc1c(F)cccc1Cl)C(=O)c1ccccc1S2)N1CCOCC1, CCN(CC)C(=O)Cn1c(=O)n(-c2ccc(C)c(C)c2)c(=O)c2c3c(sc21)CCCCC3, O=C(Nc1ccc(F)cc1F)c1cc(-c2ccc(Cl)cc2)on1, Cc1ccccc1-c1noc(-c2cccnc2N2CCN(c3ccccc3)CC2)n1, CCOC(=O)/C(C#N)=C/c1ccc(-c2ccc(Br)cc2)o1, COc1ccc(NC(=O)c2ccc3c(SCC(=O)O)c4c(nc3c2)CCCC4)c(OC)c1, Cc1ccc(CN2CCc3nc(Nc4ccc5c(c4)OCCO5)ncc3C2)cc1, Cc1ccc(C)c(N2CCN(C(=O)CCc3nnc4n(CC(C)C)c(=O)c5ccccc5n34)CC2)c1, Cc1ccc(-c2nn(-c3ccc(F)cc3)c3c2cnc2cc(F)c(F)cc23)cc1, CCCN(CCC)C(=O)Cn1c(=O)n(-c2ccc(Cl)cc2)c(=O)c2c3c(sc21)CCCCC3, COc1ccccc1-c1cc2nc(C)c(CCC(=O)O)c(C)n2n1, COC(=O)CCNC(=O)NC(CCC(C)C)c1c(-n2cccc2)sc2c1CCN(C)C2 (stereo not given), Cc1nn(-c2ccc(N3CCCCC3)nn2)c(C)c1CCC(=O)NCc1ccc(OC(C)C)cc1, COc1cccc(C(=O)NCC(c2ccc(N(C)C)cc2)N2CCc3ccccc32)c1 (stereo not given), Cn1cc(CCC(=O)NCc2ccc(Cl)cc2)c2ccccc21, O=C(O)c1c(-c2ccccc2)oc2ccc(OCc3ccc(Cl)c(Cl)c3)cc12, Cc1ccccc1CC1C(=O)Nc2ccc(Br)cc21 (stereo not given), CCOC(=O)c1c(-c2ccc(C)cc2)csc1NC(=O)c1cc(-c2ccc(Cl)cc2)on1, CCOc1ccc(N(C(=O)c2ccccc2F)S(=O)(=O)c2ccc3c(c2)n(C)c(=O)n3C)cc1, Cc1ccc(C(=O)CCC(=O)Nc2ccc(C)cc2C)cc1

Activity change, negative = inhibition, inactive:
COc1ccc2c(CNCc3ccccc3OC)c(C(=O)O)n(Cc3ccc(F)cc3Cl)c2c1 6.19%, Cn1c(=O)c2[nH]cnc2n(C)c1=O 8.12%, CS(=O)(=O)c1ccc(C2=C(c3ccccc3)C(=O)OC2)cc1 12.6%, O=C(CSc1nc(-c2cccs2)nc2cc(=O)[nH]n12)Nc1cccc(C(F)(F)F)c1 6.94%, CCOc1ccc(C(=O)N(Cc2cc(OC)c(OC)c(OC)c2)c2ccccn2)cc1 -7.91%, COc1ccc(N(CC(=O)Nc2cccc(C(C)=O)c2)S(=O)(=O)c2ccccc2)c(OC)c1 -6.09%, COc1ccc(CCNC(c2ccc(F)cc2)c2nnc(-c3ccccc3Cl)o2)cc1OC (stereo not given) -0.338%, Cc1nn(C)c2c1c(C(F)(F)F)cc(=O)n2C(C)C(=O)NCCc1ccccc1 (stereo not given) -20.4%, O=C(Nc1nc2n(n1)C(c1ccc(Cl)cc1)C=C(c1ccccc1)N2)c1ccco1 (stereo not given) -16.8%, CCOC(=O)C1=C(C)NC(=O)NC1c1cn(-c2ccccc2)nc1-c1ccc(OC(C)C)cc1 (stereo not given) -12.8%, CCCOc1ccc(-c2nonc2NC(=O)c2oc3ccc(Cl)cc3c2C)cc1OCCC -18.5%, CCOc1ccc(S(=O)(=O)c2cn(Cc3ccccc3C)c3ccc(OC)cc3c2=O)cc1 -0.255%, O=C(CN1c2ccccc2S(=O)(=O)c2ccccc21)Nc1ccccc1Cl 1.64%, O=C(Cn1cnc2onc(-c3ccc(F)cc3)c2c1=O)Nc1ccc(F)c(Cl)c1 -26.8%, O=C(c1ccc(F)cc1)N1CCC(c2nc(-c3ccc(S(=O)(=O)N4CCCC4)cc3)no2)CC1 -3.49%, CCCNC(=O)c1ccc(-c2nc(CS(=O)(=O)c3ccc(C)cc3)c(C)o2)cc1 9.26%, NC(=O)Cn1c(=O)n(CCCCCC(=O)NCc2ccc(F)cc2)c(=O)c2sccc21 2.55%, O=C(C1COc2ccccc2O1)N(Cc1cccnc1)c1nc2c(Cl)cccc2s1 (stereo not given) -21.3%, COc1ccc(OC)c(NC(=O)CSc2ncc3c(n2)-c2ccccc2N(C)S3(=O)=O)c1 -6.5%, CCOc1cccc(C2c3[nH]c4ccccc4c3CCN2C(=O)CSCc2ccc(F)cc2)c1 (stereo not given) 1.29%, Cc1ccc2c(c1)c(CC(=O)Nc1ccc(C)c(F)c1)c(C(=O)O)n2C 4.29%, CCOC(=O)c1ccc(NC(=O)CCn2c(=O)c3cccn3c3cccnc32)cc1 -2.95%, COc1cccc(C(=O)Nc2cccc(-c3cn4ccsc4n3)c2)c1OC -15.9%, CCCCS(=O)(=O)CC(O)CSc1nc(-c2ccc(C)cc2)cc(-c2ccccc2)c1C#N (stereo not given) -1.15%, O=C(CN1C(=O)COc2ccc(S(=O)(=O)N3CCOCC3)cc21)N1CCN(c2cccc(Cl)c2)CC1 -16.9%, Cc1cccc(-c2nc3c4ccccc4n(Cc4cccc(Cl)c4)c(=O)n3n2)c1 8.67%, CCc1ccc(NC(=O)CSc2ccc(-c3ccccn3)nn2)cc1 9.21%, O=C(NCCCN1CCN(c2ccc(F)cc2)CC1)c1cnn(-c2ccc(F)cc2)c1-n1cccc1 2.77%, COc1cc(NS(=O)(=O)c2cc3c(cc2C)N(C)CCO3)cc(OC)c1OC -8.19%, COc1ccc(NC(=O)C2CCCN(c3ncnc4c3nc3n4CCCCC3)C2)c(OC)c1 (stereo not given) -3.12%, Cc1cc(Br)ccc1NC(=O)Cn1cc(S(=O)(=O)N2CCN(c3ccccc3F)CC2)c2ccccc2c1=O -28.6%, O=S(=O)(c1ccc(-c2cc(C(F)(F)F)on2)s1)N1CCN(c2ccc(F)cc2)CC1 5.56%, Cc1ccc(-n2c3c(cc(-c4nc(-c5ccc(Cl)cc5)cs4)c2=O)C(=O)CC(C)(C)C3)cc1C 0.939%, C#CCSc1nc(-c2ccccc2)cc(-c2ccccc2)c1C#N 7.72%, CC1=C(c2ccc(C(C)C)cc2)S(=O)(=O)NC1=NCCCN1CCN(c2ccccc2F)CC1 -13.1%, CCn1cc(C(=O)N2CCN(c3cccc(Cl)c3)CC2)c2cc(OC)c(OC)cc2c1=O 1.54%, CCS(=O)(=O)N1CCc2cc(C(=O)Nc3ccc(C(=O)OC)cc3)ccc21 -5.55%, CCOc1ccc(CNC(=O)c2cnc3sc(N4CCOCC4)nn3c2=O)cc1 13.1%, Cc1[nH]c(=O)c(C#N)cc1-c1ccncc1 -13.1%, Cc1ccc(NC(=O)Cn2c(=O)c3ccccc3n3nncc23)cc1 3.29%, CC(=O)c1ccc(Nc2nc3c(S(=O)(=O)c4ccccc4)nnn3c3ccc(Cl)cc23)cc1 -0.253%, CCSc1oc(-c2ccco2)nc1S(=O)(=O)c1ccc(Br)cc1 -2.3%, COc1cc(NC(=O)c2cc3c(s2)-c2ccccc2OC3)cc(OC)c1OC 1.26%, CCCc1cc(=O)[nH]c(SCC(=O)N2CCN(c3ccccc3OC)CC2)n1 0.634%, COc1ccccc1NC(=O)Cn1c(=O)n(CCC(=O)NCC2CCCO2)c(=O)c2cc(OC)c(OC)cc21 (stereo not given) 8.39%, Cc1ccc2nc(-c3ccc(O)cc3)c(Nc3ccc(Cl)cc3)n2c1 -8%, CCC(=O)N1CCc2cc(S(=O)(=O)NCCC(=O)Nc3cc(C)ccc3OC)ccc21 0.819%, CCN1c2ccccc2-c2nc(SCC(=O)NCc3ccccc3)ncc2S1(=O)=O 0.987%, Cc1ccc(NC(=O)Cn2cc(S(=O)(=O)N3CCCC3)c(S(=O)(=O)N3CCCC3)c2)cc1F 9.19%, Cc1ccccc1C(=O)Nc1ccc(OCc2cc(=O)n3ccccc3n2)cc1 4.83%, CC(C)[C@H](CO)Nc1nc(Nc2cccc(Cl)c2)c2ncn(C(C)C)c2n1 -16%, COc1cccc(NC(=O)CCN2CCN(c3ccccc3)CC2)c1 1.57%, Cc1ccc(C)c(S(=O)(=O)c2nnn3c2nc(Nc2ccc(C)c(C)c2)c2ccccc23)c1 3.8%, Cc1cc(C)cc(NS(=O)(=O)c2ccc(-n3cccn3)cc2)c1 0.766%, COCCCNC(=O)c1oc2c(c1C)-c1nn(Cc3ccc(Cl)cc3)cc1CC2 -9.04%, COc1ccc(-c2cccc(NS(=O)(=O)c3ccc(C)s3)c2)nn1 5.02%, CC1CCC(Nc2ncnc3onc(-c4ccc(F)cc4)c23)CC1 (stereo not given) 1.59%, CCOc1cc(CNc2ccc(C(=O)O)cc2)ccc1OCc1ccccc1 -20.7%, CCOc1cccc(C(=O)N(Cc2ccc(N(C)C)cc2)CC2CCCO2)c1 (stereo not given) -6.08%, Cn1c(=O)n(C)c2cc(N3CCOCC3)c(NS(=O)(=O)c3ccc(C(C)(C)C)cc3)cc21 4.32%, CCc1ccc(CNCc2c(C(=O)O)c(C)n(Cc3c(F)cccc3Cl)c2C)cc1 -3.19%, COc1cccc(-n2c(=O)c3c(C)c(C)sc3n(CC(=O)Nc3ccccc3OC)c2=O)c1 8.31%, Nc1nc(SCC(=O)Nc2cccc(C(F)(F)F)c2)n[nH]1 1.56%, CC1CCN(S(=O)(=O)c2ccc3c(ccc(=O)n3CC(=O)Nc3ccc(C(C)C)cc3)c2)CC1 -7.29%, CCc1ccccc1NC(=O)N1CCC(CN2CCc3ccccc3C2)CC1 0.972%
